Out of some 150,000 compounds screened, about 540 (0.36%) showed an effect of 50% or more. This is one part of the list.
The compounds below were run on Plasmodium falciparum (assay: Primary screen in NF54 nanoGlo assay, in single point, at 2uM, 72h; a lower Z score goes with more inhibition). Settings: timepoint 72 hour.
Type: functional, Erythrocyte

Row | Structure (SMILES) | % Inhibition | Z score
1 | CC(C)c1nc2ccc(NC(=O)N[C@H]3CCCOCC3)cc2s1 | 32% | -3.67
2 | O=C(c1ccncc1F)N1CCC(c2nccn2Cc2ccccc2)CC1 | -2% | 0.23
3 | CC(C)(C)C(=O)NCC(=O)N1CCCO1 | -10% | 1.11
4 | COc1cccc(NC(=O)[C@H]2CCCN(C(=O)c3nnc(C(=O)Nc4ccc5c(c4)OCO5)s3)C2)c1 | -43% | 3.77
5 | Cc1cccnc1[C@H](C)NC(=O)CCN(C)S(C)(=O)=O | 1% | -0.14
6 | COc1ccc(Cl)cc1N1C(=O)[C@@H]2[C@H](CC(N)=O)N[C@]3(C(=O)Nc4ccccc43)[C@@H]2C1=O | 1% | -0.11
7 | Cc1csc2c(N3CC[C@H](O)C3(C)C)ncnc12 | -3% | 0.51
8 | Cc1sc2ncnc(N3CCC[C@H](C)C3)c2c1C(=O)Nc1cccc(F)c1 | 1% | -0.14
9 | COc1ccc(NS(=O)(=O)c2cccc(C(=O)NCc3ccco3)c2)cc1Br | -12% | 1.55
10 | COc1ccc(CNC(=O)c2cc3n(n2)CCCN(Cc2ccc(F)cc2)C3=O)cc1 | -9% | 1.13
11 | O=C(CCOc1cccc(Cl)c1Cl)NCc1ccc2c(c1)OCO2 | -13% | 1.76
12 | CCn1nccc1C(=O)NCCN1Cc2cc(F)ccc2OCC1=O | -12% | 2
13 | O=S(=O)(c1ccc(Oc2ccc3ccccc3c2)nc1)N1CCOCC1 | -20% | 1.65
14 | CC(C)C[C@H](C)N(c1ccc2[nH]ccc2c1)S(=O)(=O)c1ccc(S(=O)(=O)NC2CC2)cc1 | -9% | 0.77
15 | CN(CC1(O)CCOCC1)C(=O)NCC1(Cc2ccccc2)CCC1 | -12% | 1.57
16 | COc1cc([C@@H]2NCCC3(O)CCCCC23)cc(OC)c1OC (some centres undefined) | 8% | -0.98
17 | CCCN(Cc1c(-c2ccccc2)nn(C)c1Oc1ccc(F)cc1)C[C@H](O)COc1ccccc1 | 1% | -0.07
18 | CN(Cc1c(Cl)cncc1Cl)C[C@H]1COCCO1 | -20% | 2.64
19 | CC(C)(C)C(=O)NCc1cccnc1-c1ccccc1 | -9% | 1.06
20 | Cc1cnc(N2CCC(O)CC2)nc1N(C)C | -12% | 2.32
21 | Cc1nc(N(C)C)cc(N2CCN(C(=O)C3CCCC3)CC2)n1 | -17% | 1.88

Row | Structure (SMILES) | % Inhibition | Z score
22 | FC(F)(F)c1cccc(N2CCN(c3nc(-c4ccccc4)no3)CC2)c1 | -16% | 1.72
23 | Cc1ccc(CN2CCN(C[C@@H](O)Cn3c4ccccc4n4c(=O)cc(C)c(C#N)c34)CC2)c(C)c1 | 86% | -13.14
24 | Cc1ccc(C(=O)Nc2ccc(-n3cc(Br)cn3)nc2)c(=O)n1C | -4% | 0.53
25 | O=C(Nc1cccnc1-n1cccn1)c1cc(-c2ccccc2)c(N2CCOCC2)s1 | -5% | 0.61
26 | O=C(c1ccc2snnc2c1)N1CCN(c2ccccc2)CC1 | -8% | 1.38
27 | CC1(C)C(O)CC1Nc1ccc(F)cc1C#N (centres undefined) | -13% | 1.33
28 | CC(C)(C)OC(=O)N1CCN(C[C@H]2CN(c3ccc(F)cc3)C(=O)O2)CC1 | 37% | -4.77
29 | COc1cc(CN(C(=O)c2ccc(-n3cccn3)cc2)[C@H]2CCCCNC2=O)ccc1OCCc1ccccn1 | 11% | -1.41
30 | COc1ccc2c(c1)CC[C@H](NCCCn1ccccc1=O)C2 | -7% | 1.28
31 | N#CC1(NC(=O)Cc2cc(Cl)ccc2Br)CC1 | -4% | 0.33
32 | O=C(Nc1cnc(Oc2ccccc2)nc1)Nc1ccc(F)cc1F | -1% | 0.21
33 | O=C(c1cc(C2CC2)n[nH]1)N1CCN(c2ccc(F)cc2)CC1 | -11% | 1.36
34 | O=C1c2cccn2CCC1C(O)c1ccncc1 (centres undefined) | 2% | -0.24
35 | CCN(CC)c1ccc(C(=O)N2CCN(c3ccccc3OC)CC2)cc1 | -7% | 0.83
36 | Nc1cc(CCc2c(F)cccc2Cl)n[nH]1 | -14% | 1.93
37 | O=C(c1nccc2ccccc12)N1CCC[C@H]1c1ccc[nH]1 | -7% | 1.09
38 | CC(C)(C)OC(=O)Nc1ccccc1NCc1ccsc1 | -4% | 0.36
39 | COC(=O)C1C2CCCC2CN1Cc1ncnn1C (centres undefined) | 0% | -0.07
40 | CCC(O)CN1CCCC(CNC(=O)C(C)(C)C)C1 (centres undefined) | -13% | 1.83
41 | COc1ccc(CN2C(=O)N[C@@H](CC(=O)Nc3nc(C)cs3)C2=O)cc1OC | -14% | 1.79
42 | O=C(CCCn1cncn1)N1CCc2cc3ccc2[C@@H]1c1cccc(c1)OCCCn1cc(nn1)CO3 | -13% | 1.65

Row | Structure (SMILES) | % Inhibition | Z score
43 | O=C(O)C1(CCCc2ccccc2)CCN(c2ncnc3[nH]ccc23)CC1 | -2% | 0.33
44 | CN(C)c1ccc(/C=C(/c2ccccc2)c2nc3ccccc3[nH]2)cc1 | -1% | 0.13
45 | Cc1cn(-c2c(F)cccc2F)nc1C(=O)NCc1ccc2c(c1)OCO2 | -10% | 1.3
46 | CCCCCOCC(=O)N[C@@]1(C(N)=O)CCOC1 | 17% | -2.1
47 | O[C@H]1CN(Cc2ccco2)CCN(c2nnnn2-c2ccccc2)C1 | 2% | -0.31
48 | O=S1(=O)CC(O)C(N2CCN(C(c3ccccc3)c3ccccc3)CC2)C1 (centres undefined) | -4% | 0.53
49 | CC1CCN(C(=O)CN2C(=O)COc3ccc(S(=O)(=O)N4CCC(C)CC4)cc32)CC1 | -12% | 2.18
50 | O=C(CCN1CCCCCC1=O)NCCNC(=O)c1ccc(F)cc1 | -16% | 2.32
51 | COc1ccc(S(=O)(=O)N2CCOCC2)cc1NC(=O)c1ccc2c(c1)C(=O)N(c1cc(C)ccc1C)C2=O | -4% | 0.72
52 | Cn1c2c(cc(C(=O)N3CCC[C@H](c4cccc(C(=O)O)c4)C3)c1=O)CCCC2 | 5% | -0.76
53 | COc1ccc(C(=O)N2CCCC[C@H]2c2ccc(F)cc2)c(OCCN)c1 | -6% | 0.59
54 | O=C(C1CCC1)N1CC(Oc2nccs2)C1 | -5% | 0.67
55 | CCCN(CC1CC1)C(=O)c1csc(NC(=O)c2cc(F)cc(F)c2)n1 | -13% | 1.81
56 | CC1CC1C(NC(=O)C1CCNCC1)c1ccc(Cl)cc1 (centres undefined) | -15% | 1.37
57 | O=S1(=O)NC[C@H](O)CNC[C@@]2(COc3cc(-c4ccccc4)ccc31)C[C@@H](O)[C@@H](O)C2 | -14% | 1.78
58 | CCN1CCN(C(=O)c2cc3cc(NC(=O)c4cccc(F)c4)ccc3n2Cc2cccc(F)c2)CC1 | 2% | -0.28
59 | O=C(CCn1cnc2cc(-c3noc(-c4ccco4)n3)ccc21)N1CCOCC1 | -7% | 0.89
60 | CC1(C)OC(=O)N(CC(=O)N2CCO[C@H](c3ccccc3)C2)C1=O | -4% | 0.61
61 | CC(C)c1ccc(CN2C[C@@H]3C(=O)N(CCCN4CCCC4=O)C(=O)[C@@H]3C2)cc1 | -9% | 1.11
62 | COCCN1C(=O)C[C@H](C(=O)N(C)CCc2nccs2)[C@H]1c1nccn1C | -18% | 2.18
63 | Cc1ccc(S(=O)(=O)Nc2cccc3c2CN(C(C)C)C3)o1 | -9% | 1.37

Row | Structure (SMILES) | % Inhibition | Z score
64 | Cc1cccc2cc(C(=O)N3CCC[C@]4(CCC(=O)N(C5CC5)C4)C3)n(C)c12 | -15% | 2.89
65 | Cn1cncc1C(=O)N1CCOCC1C1CCCC1=O (centres undefined) | -4% | 0.66
66 | CN(Cc1ccncc1)C(=O)CNC(=O)Cc1c(F)cccc1F | -9% | 1.21
67 | COc1ccc(NC(=O)CC[C@H]2CCCN(C(=O)c3c[nH]c4ccccc34)C2)c(C)c1 | -4% | 0.63
68 | Cc1cc(N(C)Cc2cc(C)on2)n2ncnc2n1 | 5% | -0.87
69 | O=C(CNC(=O)C1CCCCC1)N[C@H]1CCCc2ccccc21 | 12% | -1.43
70 | CCc1c[nH]c2ncnc(N(C)Cc3nc(-c4cccs4)no3)c12 | -9% | 1.49
71 | CC(C)[C@@H]1CN(C)CCN1C(=O)c1cnn(-c2ccncc2)c1 | -11% | 2.07
72 | CC(=O)N(C1CCOCC1)[C@H]1CCN(S(=O)(=O)c2ccc(F)c(F)c2)C1 | -10% | 1.68
73 | c1ccc2c(-n3nc(C4CC4)nc3CCN3CCCO3)nccc2c1 | 11% | -1.57
74 | OCC1CCN(c2nnnn2Cc2c(Cl)cccc2Cl)CC1 | -5% | 0.83
75 | COc1ccccc1C1CC1NC(=O)NCCC1CCCO1 (centres undefined) | -2% | 0.4
76 | O=C(c1ccc(-c2cscn2)cc1)N1CCCCC1 | -11% | 1.34
77 | C[C@@H](C(=O)N1CCCC1)n1ccc2ncccc2c1=O | -8% | 1.37
78 | Cc1nncn1CCN1C(=O)COc2cccnc21 | -23% | 2.7
79 | Cc1cccc(Oc2cc(CNC(=O)N3CC[C@H](O)C(F)(F)C3)ccn2)c1C | 0% | -0.02
80 | Cc1ccc(N(C(=O)NC(=O)Nc2c(C)cc(C)cc2C)S(=O)(=O)c2ccccc2)cc1 | -10% | 1.8
81 | Cc1ccc(NCC(=O)Nc2nc(-c3ccccc3)cc(-c3ccccc3)n2)cc1 | -8% | 1.33
82 | O=C(NCCc1ccccc1Oc1ccccc1)[C@H]1CCOC1 | -21% | 2.12

Reference: ChEMBL document CHEMBL4888484, “Replenishing the malaria drug discovery pipeline: Screening and hit evaluation of the MMV Hit Generation Library 1 (HGL1) against asexual blood stage Plasmodium falciparum ,using a nano luciferase reporter read-out” (2022)
